Drawing on the supplement of paper PMC10986608, this text covers growth for 78 compounds.

Some of the results follow. Most values come without repeats; read them as rough.

In this test the test system is Candida albicans DPL-15. As to the kind of experiment: growth (OD600) after compound treatment (apparently relative to screen median) (relative growth (fraction; screen median 1.02)); DPL-15 is a caspofungin-resistant clinical isolate; higher = more fungal growth (less antifungal activity). The note with it: 25 µM; RPMI 1640; 48 h; 30 °C.
In the case of `COc1cc([C@@H]2[C@@H](C(=O)NCC3CC3)[C@@H](C(=O)NCC3CC3)[C@@H]2c2cc(OC)c(OC)c(OC)c2)cc(OC)c1OC`, the growth was 1.06.

Turning to `COc1ccc(OC)c(CNCC2CCN(CCc3ccccc3C)CC2)c1`, the growth was 1.07.

Take `CCCCc1nc2c(c3c1C[C@H](C)OC3)CN(C(=O)c1cccnc1)CC2`: the growth worked out at 1.09.

Take `CC(C)Cc1n[nH]c2c1C(c1cccc(Cl)c1)N(c1ccc3c(c1)OCO3)C2=O` (stereo not drawn): the growth worked out at 0.921.

For `C=CC[C@H]1C[C@@]23C[C@H](CC=C)C(C)(C)[C@@](CC=C)(C(=O)OC2=C(C(=O)c2ccccc2)C1(C)C)C3=O`, the growth is 1.13.

For the compound `Cn1nccc1Nc1cc(O)cc(O)c1C(=O)N1Cc2ccccc2C1`, the growth came out at 1.02.

In the case of `Cc1ccc(C2C3=C(C(=O)N2c2ccccc2)N(C)CCN=C3CC(C)C)cc1` (stereo not drawn), the growth turned out to be 0.949.

For the compound `COc1ccc([C@@]23Oc4cc(OC)cc(OC)c4[C@]2(O)[C@H](O)[C@H](C(=O)NOCc2ccccc2)[C@H]3c2ccccc2)cc1`, the growth was determined as 1.2.

As to `O=C1NC(c2ccc3c(c2)OCO3)c2c1nn(-c1ccc(OC(F)(F)F)cc1)c2-c1ccccc1` (stereo not drawn), the growth was found to be 0.862.

Take `O=C(/C=C/c1ccccc1)N1CCC[C@H]1CO`: the growth turned out to be 1.06.

Take `C=CCN1C(=O)C2=C(C(CC(C)C)=NCCN2C)C1c1ccc(Br)cc1` (stereo not drawn): the growth was 0.835.

As to `CO[C@@H]1[C@H](O)CC[C@]2(O)CN(Cc3ccco3)[C@](C)([C@H](O)CC=C(C)C)[C@@H]12`, the growth was found to be 1.08.

With `CO[C@@H]1[C@H](O)CC[C@]2(O)CN(Cc3ccc4c(c3)OCO4)[C@@H](CC=C(C)C)[C@](C)(O)[C@@H]12`, the growth is 1.1.

As to `COc1ccc(-c2cnn3c(N)c(-c4ccc(F)cc4)cnc23)cc1`, the growth stood at 1.09.

Turning to `Cc1nn(-c2ccccc2)c2c1C(c1ccc(F)cc1)NC2=O` (stereo not drawn), the growth amounted to 1.1.

For `CCCCCN(C(=O)OC(C)(C)C)S(=O)(=O)Nc1ccc(C(C)(C)C)cc1`, the growth amounted to 1.04.

As for `CC(C)=CCc1cc(OCC(=O)NS(=O)(=O)OCCOCc2ccccc2)cc2oc3cccc(O)c3c(=O)c12`, the growth came to 0.955.

For the compound `COc1ccccc1Cn1nc(C(C)C)c2c1C(=O)NC2c1ccc(Br)cc1` (stereo not drawn), the growth stood at 0.982.

For `C[C@H]1C[C@@H](C)O[C@@]2(C1)C(=O)Nc1ccccc12`, the growth is 0.881.

In the case of `C=CCC1=C(OC)C(CC=C)(CC=C(C)C)C(=O)C(C(=O)c2ccccc2)=C1O` (stereo not drawn), the growth came to 1.42.

For `CO[C@@H]1[C@H](O)CC[C@]2(O)CN(c3ccc4ncoc4c3)[C@@H](CC=C(C)C)[C@](C)(O)[C@@H]12`, the growth amounted to 0.997.

Turning to `CCCCCOS(=O)(=O)NC(C)(C)C`, the growth stood at 1.14.

In the case of `COc1ccc2c(c1)[C@@H](NS(=O)(=O)c1ccc(C)cc1)[C@H](C)[C@H]2c1ccccc1`, the growth was 1.1.

For the compound `COCCN1Cc2cc(C(=O)OC)c3c(c2C1=O)c1cc(F)ccc1n3S(=O)(=O)c1cccc(C)c1`, the growth stood at 0.866.

As for `C=CC[C@@H]1C[C@@]23C[C@H](CC=C)C(C)(C)[C@@](CC=C)(C(=O)C(C(=O)c4ccccc4)=C2OC1(C)C)C3=O`, the growth is 0.991.

`CS(=O)(=O)Oc1c(C[C@@]23CCCCC2=Nc2c(F)cccc23)occc1=O`: the growth came out at 1.06.

For `CC(C)C1=NCC(C)(C)NC2=C1C(c1ccc(F)cc1)NC2=O` (stereo not drawn), the growth came out at 0.962.

Take `COC(=O)[C@@]12Oc3cccc(O)c3C(=O)C1=C(OC)C[C@H](C)[C@H]2O`: the growth amounted to 1.12.

Take `Cc1ccc(C2NC(=O)c3nn(-c4ccccc4)c(-c4ccccc4)c32)cc1` (stereo not drawn): the growth was 0.921.

Turning to `CC(C)Cc1n[nH]c2c1C(c1ccc(F)cc1)N(c1ccc3c(c1)OC(F)(F)O3)C2=O` (stereo not drawn), the growth was determined as 1.11.

On to `CCN1C(=S)NC(c2cccc(OC)c2)C(C(C)=O)=C1C` (stereo not drawn), for which the growth is 1.03.

Regarding `CC(C)CC1=NCCN(C)C2=C1C(c1ccc(Br)cc1)NC2=O` (stereo not drawn), the growth was found to be 1.

For the compound `COC(=O)[C@]1(Cc2ccccc2)NC=C(C(=O)c2ccc(OC)cc2)[C@@H]1c1ccccc1`, the growth was found to be 1.08.

With `C=C(C)[C@@H]1CC[C@]2(C(=O)OC)CC[C@]3(C)[C@H](CC[C@@H]4[C@@]5(C)CCC(=O)C(C)(C)[C@@H]5CC[C@]43C)[C@@H]12`, the growth was 0.905.

Take `CC(C)Cc1nn(-c2ccccc2)c2c1C(c1ccc(F)cc1)NC2=O` (stereo not drawn): the growth came out at 1.09.

Consider `CC(C)[C@@H]1CC[C@]2(C(=O)O)CC[C@]3(C)[C@H](CC[C@@H]4[C@@]5(C)CCC(=O)C(C)(C)[C@@H]5CC[C@]43C)[C@@H]12`, for which the growth is 1.16.

For `C=CCC[C@@H](O)COc1cc2c(cc1C1(c3cc4c(cc3OC[C@H](O)CCC=C)OCO4)C(=O)Nc3ccc(F)cc31)OCO2`, the growth was 0.915.

Regarding `O=C1CC2(CCCCC2)CNC(=O)c2cccc(c2)/C=C/C=C\Oc2ccccc2CN1`, the growth came to 1.03.

For the compound `CC(C)(C)NS(=O)(=O)OCC12C[C@H]3C[C@@H](C1)C[C@@H](C2)C3`, the growth amounted to 1.03.

Take `C[C@H]1C[C@H]2[C@H](O)C(=O)N[C@@H](Cc3ccccc3)C(=O)N2[C@H]1c1cccc(Br)c1`: the growth stood at 1.26.

As for `C=CC[C@]12C[C@@]3(O[C@H](c4ccc(C(F)(F)F)cc4)N=C3C[C@H](c3ccc(OC)cc3)[C@H]1C)N(Cc1ccncc1)C2=O`, the growth was found to be 0.998.

Regarding `COc1cc(OC)c2c(c1)O[C@@]1(c3ccc(C#N)cc3)[C@H](c3ccccc3)[C@@H](CN(C)C)[C@@H](O)[C@@]21O`, the growth amounted to 1.21.

For the compound `COc1ccc2c(=O)c3ccccc3oc2c1O`, the growth worked out at 1.09.

With `COC(=O)c1c(O)c(C)c(OCc2ccccc2)c(C)c1OCc1ccccc1`, the growth was found to be 1.01.

As for `COc1ccc(Cn2ncc(C)c2N)cc1`, the growth stood at 0.971.

Turning to `C#CCN(C)C(=O)c1nnc(C(=O)OC)c2c1c1ccccc1n2Cc1ccccc1`, the growth was 1.28.

Turning to `C[C@H](NC(=O)N1CCc2nc(COc3ccccc3)c3c(c2C1)CO[C@@H](C)C3)c1ccccc1`, the growth came out at 1.21.

Regarding `COc1ccc(Cn2nccc2Nc2cc(O)cc(O)c2C(=O)N2Cc3ccccc3C2)cc1`, the growth came out at 0.999.

Take `CC#C/C(O)=C1/C(=O)OCc2c(OCc3ccccc3)cc(OC)cc21`: the growth amounted to 1.01.

In the case of `COC(=O)[C@]1(Cc2ccccc2)NC=C(C(=O)c2ccccc2)[C@@H]1c1ccccc1`, the growth was 1.04.

`C=CCC1=CC(O)CCC1=O` (stereo not drawn): the growth amounted to 1.

With `C[C@H]1C[C@H]2CC(=O)N[C@@H](Cc3ccccc3)C(=O)N2[C@H]1C1CC1`, the growth amounted to 0.998.

As for `C=CCN1C(=O)C2=C(C(C)=NCC(C)(C)N2)C1c1ccc(F)cc1` (stereo not drawn), the growth was found to be 0.997.

Take `CCc1cc(N)n(Cc2ccc(OC)cc2)n1`: the growth is 1.03.

Turning to `CC1(Cc2occc(=O)c2O)C=Nc2ccccc21` (stereo not drawn), the growth is 1.11.

As to `COc1ccc(Cn2nc(-c3ccccc3)cc2Nc2cc(O)cc(O)c2C(=O)N(C)CC2CC2)cc1`, the growth came out at 1.12.

On to `COc1cc(OC)c2c(c1)OC(Cc1ccc(F)cc1C(F)(F)F)(c1ccc(Br)cc1)C2=O` (stereo not drawn), for which the growth amounted to 0.924.

For `COc1cc(OC)c2c(=O)c(O)c(-c3ccc(Br)cc3)[nH]c2c1`, the growth was active: 0.0763.

Regarding `CCOc1ccc(-n2c(C)c3c(C)nnc(Nc4ccncc4)c3c2C)cc1`, the growth amounted to 1.07.

With `CC(C)C1=NCCNC2=C1C(c1ccc(Br)cc1)N(Cc1ccccc1)C2=O` (stereo not drawn), the growth turned out to be 1.05.

Take `COc1ccc(N2C(=O)c3[nH]nc(CC(C)C)c3C2c2ccc(OC)nc2)cc1` (stereo not drawn): the growth was 1.

Regarding `C=CCN1C(=O)C2=C(C(c3ccccc3)=NCCN2C)C1c1ccc(C)cc1` (stereo not drawn), the growth was 1.

For `COC(=O)C1=C(C)N(C)C(=O)N(C(C)=O)C1c1ccccc1` (stereo not drawn), the growth worked out at 1.03.

Take `C[C@@H]1/C=C/CC(=O)OCc2ccccc2CC(=O)N[C@@H]1c1ccccc1`: the growth came to 1.

Regarding `COc1ccccc1Cn1nc(C(C)C)c2c1C(=O)NC2c1ccc(C)cc1` (stereo not drawn), the growth amounted to 0.97.

Take `C#CCC(C)(C)CNC(=O)CC(CNC(=O)c1cccc(/C=N/NS(=O)(=O)c2ccc(C)cc2)c1)c1ccccc1` (stereo not drawn): the growth came to 1.2.

As to `Cc1ccc2c(c1)[C@]1(C(=O)N2C)C2=C(CCCC2=O)Oc2cc(C)oc(=O)c21`, the growth was determined as 1.03.

Regarding `Cc1ccc(C2c3c(nn(C)c3-c3ccccc3)C(=O)N2c2ccccc2)cc1` (stereo not drawn), the growth was 0.88.

Consider `COc1ccc(N2C(=O)c3[nH]nc(CC(C)C)c3C2c2cc(F)nc(F)c2)cc1` (stereo not drawn), for which the growth amounted to 0.974.

As for `CC(O)c1nnc(C(=O)NCc2ccccc2)c2[nH]c3ccccc3c12` (stereo not drawn), the growth was 1.19.

Regarding `COCO[C@@H]1CC[C@H](O)C(C(=O)OC)=C1Oc1cc(O)cc(OC)c1`, the growth amounted to 0.991.

As for `CC(=O)C1=C(C)N(Cc2ccc(Br)cc2)C(=S)NC1c1cccc(Cl)c1` (stereo not drawn), the growth came to 0.92.

Consider `CC1=C[C@@H](COc2ccc(Br)cc2)O[C@@]2(C1)C(=O)N(C)c1ccccc12`, for which the growth amounted to 0.915.

As to `COCOc1cc(OC)cc(O)c1C(=O)[C@@H]1CC=C(CCC=C(C)C)C[C@H]1c1cccnc1`, the growth turned out to be 0.944.

For `O=C(O)/C=C/c1ccc(O)c(O)c1`, the growth was 1.09.

For `C#C[C@@H]1C=C[C@H](Oc2ccc(OC)cc2)[C@@H](CO)O1`, the growth came out at 1.05.

Take `CCc1ccccc1-n1nc(C(C)C)c2c1C(=O)NC2c1ccc(Br)cc1` (stereo not drawn): the growth amounted to 0.931.

On to `CC1=C[C@H]2c3c(c(O)c(O)c4oc5cc(O)ccc5c(=O)c34)[C@H](c3cc(O)c(O)c4oc5cc(O)ccc5c(=O)c34)[C@H]2C(C)(C)C1`, for which the growth was 2.22.
